{"source": "PubChem BioAssay AID485344", "about": "(National Center for Advancing Translational Sciences (NCATS), 2010)", "note": "Out of some 340,000 compounds screened, about 6,900 (2%) were called active. Rule as the data show it: active = inhibition above about 30%; inactive = below that, where a call was filed. The entries are a selection whose mix differs from that of the whole data set. Entries without a call were filed so in the source."}
{"biological_target": "D(2) dopamine receptor (Homo sapiens) (UniProt P14416)", "sequence (P14416 whole entry, looked up)": "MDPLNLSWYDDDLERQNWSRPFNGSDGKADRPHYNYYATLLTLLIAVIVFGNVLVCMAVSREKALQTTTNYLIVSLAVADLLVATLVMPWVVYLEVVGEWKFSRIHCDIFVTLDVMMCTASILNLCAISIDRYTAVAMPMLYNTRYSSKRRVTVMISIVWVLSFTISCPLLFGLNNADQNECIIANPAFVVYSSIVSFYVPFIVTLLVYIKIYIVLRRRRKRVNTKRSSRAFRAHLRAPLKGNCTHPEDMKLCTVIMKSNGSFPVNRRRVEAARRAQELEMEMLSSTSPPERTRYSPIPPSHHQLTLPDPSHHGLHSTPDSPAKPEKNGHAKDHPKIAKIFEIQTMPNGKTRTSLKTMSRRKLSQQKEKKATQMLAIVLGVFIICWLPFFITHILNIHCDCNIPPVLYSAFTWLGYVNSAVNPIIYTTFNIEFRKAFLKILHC", "experiment": "HTS Assay for Allosteric Antagonists of the Human D2 Dopamine Receptor: Primary Screen for Antagonists; also: 0% is about no effect", "conditions": "HEK293 TREx D2 cells, calcium flux, dopamine EC80; at 10 µM; stronger effect = higher value", "procedure,_shortened": "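Compounds are added to dye-loaded, induced HEK293 T-REx cells coupled to calcium release via D2; after a 3 min kinetic read an EC80 dopamine stimulus is given and fluorescence is recorded for 3 more min.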"}
{"smiles": "Cc1cn2c(=O)cc(COc3cccc(NC(=O)c4ccccc4C)c3)nc2s1", "inhibition": "3.44%"}
{"smiles": "COc1ccc(OC)c(NC(=O)Cc2coc3ccc(C(C)C)cc23)c1", "inhibition": "-10.1%"}
{"smiles": "CCOC(=O)c1[nH]c(C)c(CCC(=O)NCc2ccccc2)c1C", "inhibition": "5.91%"}
{"smiles": "CCOC(=O)c1c(-c2ccccc2)oc2ccc(N(C(C)=O)S(=O)(=O)c3cc(C)ccc3C)cc12", "inhibition": "-7.27%"}
{"smiles": "Cc1cc(C)cc(NC(=O)N2CCC(N3CCCCC3)CC2)c1", "inhibition": "-1.21%"}
{"smiles": "COc1ccc(S(=O)(=O)N2CCN(c3ccccc3F)CC2)cc1-c1noc(C)n1", "inhibition": "-15%"}
{"smiles": "Fc1ccc(-c2noc3ncnc(N4CCN(c5ccccc5)CC4)c23)cc1", "inhibition": "-3.49%"}
{"smiles": "COc1ccc(OC)c(NC(=O)c2cc3c(=O)oc4ccccc4c3s2)c1", "inhibition": "13%"}
{"smiles": "Cc1ccc(C)c(NC(=O)c2ccc3c(O)c(S(=O)(=O)c4ccc(Cl)cc4)c(=O)[nH]c3c2)c1", "inhibition": "-3.68%"}
{"smiles": "CCN(CC)c1nn2c(=O)c(C(=O)NCCc3ccccc3)cnc2s1", "inhibition": "0.287%"}
{"smiles": "CCOc1ccc(-c2nonc2NC(=O)c2oc3cc(C)ccc3c2C)cc1", "inhibition": "-4.62%"}
{"smiles": "CCCCSCCCNC(=O)CN1C(=O)c2cccnc2Oc2ccc(Cl)cc21", "inhibition": "-7.88%"}
{"smiles": "CCN(CC)C(=O)C1CC(c2ccc(OC)cc2)=NO1", "note": "(stereo not given)", "inhibition": "active: 31.3%"}
{"smiles": "CCOC(=O)CSc1nc2ccc(NC(=O)c3ccc(C)cc3)cc2s1", "inhibition": "1.56%"}
{"smiles": "CCc1ccc(CNC(=O)Cc2ccc(NC(=O)N3CCSc4ncccc43)cc2)cc1", "inhibition": "1.19%"}
{"smiles": "COc1cccc(N2CCN(C(=O)C(CCSC)NS(=O)(=O)c3ccc4c(c3)oc(=O)n4C)CC2)c1", "note": "(stereo not given)", "inhibition": "4.24%"}
{"smiles": "O=C(O)c1ccc2c(c1)ncn2-c1ccc(F)c(F)c1", "inhibition": "21.6%"}
{"smiles": "COc1ccc(NC(=O)C2=C(C)Nc3ncnn3C2c2ccc(O)cc2)cc1", "note": "(stereo not given)", "inhibition": "-6.51%"}
{"smiles": "COc1ccc(C(=O)NCCC2=CCCCC2)cc1OC", "inhibition": "active: 34.5%"}
{"smiles": "COc1ccc2ccccc2c1-c1sc(Nc2ccccc2)n[n+]1-c1ccc(F)cc1", "inhibition": "active: 32%"}
{"smiles": "CCc1ccc(CNC(=O)c2ccc(OC)c(OC3CCN(C(C)C)CC3)c2)nc1", "inhibition": "active: 42%"}
{"smiles": "CCOC(=O)CNC(c1ccccc1)c1cc(Br)ccc1NC(=O)CCN1CCOCC1", "note": "(stereo not given)", "inhibition": "active: 37.9%"}
{"smiles": "CCOC(=O)c1ccc(NC(=O)CCCc2nc(-c3ccccc3Cl)no2)cc1", "inhibition": "-6.87%"}
{"smiles": "COc1ccc(/C(C)=N/Nc2nccnc2Cl)cc1", "inhibition": "active: 35.7%"}
{"smiles": "CCOc1ccc(-c2cc(NC(=O)Nc3cccc(C(C)=O)c3)c(C(=O)OC)s2)cc1", "inhibition": "-1.05%"}
{"smiles": "CCOc1ccc(S(=O)(=O)NCC(c2ccco2)S(=O)(=O)c2cccs2)cc1", "note": "(stereo not given)", "inhibition": "9.36%"}
{"smiles": "Cc1ccc(NC(=O)c2cnn3c(C(F)F)cc(-c4ccccc4)nc23)c(C)c1", "inhibition": "2.31%"}
{"smiles": "COc1ccc(OC)c(NC(=O)C2CCCN(S(=O)(=O)c3c(C)nn(C)c3C)C2)c1", "note": "(stereo not given)", "inhibition": "-2.43%"}
{"smiles": "Cc1ccc(NC(=O)Nc2nnc(N(CC(C)C)CC(C)C)s2)cc1Cl", "inhibition": "6.35%"}
{"smiles": "COc1ccc(N2CCN(C(=O)CCc3c(C)nn(-c4ccc(N5CCCC5)nn4)c3C)CC2)cc1", "inhibition": "6.5%"}
{"smiles": "CCOC(=O)c1cc(-c2ccccc2)n(-c2cccc(C(=O)Nc3ccc(F)c(F)c3)c2)c1C", "inhibition": "-4.65%"}
{"smiles": "COc1c(C)cc(S(=O)(=O)NCCc2c(C)[nH]c3ccccc23)c(C)c1C", "inhibition": "7.13%"}
{"smiles": "CC(C)(CN1CCN(Cc2ccccc2)CC1)NS(=O)(=O)c1ccc(Cl)cc1", "inhibition": "active: 43.6%"}
{"smiles": "Cc1cc(Nc2cccc([N+](=O)[O-])c2)n2c(nc3ccccc32)c1C#N", "inhibition": "active: 34.9%"}
{"smiles": "Cc1c(NC(=O)c2cc(-c3ccc(Cl)c(Cl)c3)on2)c(=O)n(-c2ccccc2)n1C", "inhibition": "-3.58%"}
{"smiles": "COc1ccccc1CNC(=O)CCn1c(=O)c2ccccc2n(CC(=O)Nc2cccc(Cl)c2)c1=O", "inhibition": "0.651%"}
{"smiles": "Cc1ccc(S(=O)(=O)Cc2ccc(C(=O)NCCCN3CCCC3=O)o2)cc1", "inhibition": "active: 34%"}
{"smiles": "Cc1ccc(-n2ncc(C(=O)N3CCN(c4cccc(C)c4)C(C)C3)c2C2CCN(C(=O)OC(C)(C)C)CC2)cc1", "note": "(stereo not given)", "inhibition": "12.3%"}
{"smiles": "Cc1nn(CCCC(=O)NCc2ccc(F)cc2)c(=O)c2c1sc1ccccc12", "inhibition": "4.7%"}
{"smiles": "CCOc1ccc(N2CC(c3nc4ccccc4n3Cc3cccc(Cl)c3)CC2=O)cc1", "note": "(stereo not given)", "inhibition": "-5.2%"}
{"smiles": "C/C(=N\\NC(=S)NCC(C)(C)C)c1cc(F)cc(F)c1O", "inhibition": "active: 36.7%"}
{"smiles": "Cc1cc(C)cc(C(=O)Nc2ccc(-c3nc4ncccc4o3)cc2)c1", "inhibition": "8.05%"}
{"smiles": "CCOc1ccc2nc(NC(=O)c3cc(=O)c4ccc(C)cc4o3)sc2c1", "inhibition": "12.4%"}
{"smiles": "CCN1CCSc2ccc(C(=O)NC(C)c3ccccc3)cc21", "note": "(stereo not given)", "inhibition": "12.6%"}
{"smiles": "O=C(NCc1ccc(Cl)cc1)c1cc(S(=O)(=O)N2CCCCC2)c[nH]1", "inhibition": "9.44%"}
{"smiles": "Cc1c2cnn(CC(=O)N3CCN(c4ccc(F)cc4)CC3)c(=O)c2c(C)n1Cc1ccc(F)cc1", "inhibition": "1.06%"}
{"smiles": "Cc1cc(NS(=O)(=O)c2ccc(NC(=O)COc3ccc(Br)cc3C)cc2)no1", "inhibition": "-6.38%"}
{"smiles": "CCCCc1nn2c(=O)cc(COC(=O)c3ccccc3NC(=O)C(C)(C)C)nc2s1", "inhibition": "8.57%"}
{"smiles": "Cc1[nH]c(=O)[nH]c(=O)c1C1N2CC3(C(C)C)CN1CC(C(C)C)(C2)C3=O", "note": "(stereo not given)", "inhibition": "6.44%"}
{"smiles": "Cc1ccc(N2CCn3c2nc2c3c(=O)n(CCc3ccccc3)c(=O)n2C)cc1C", "inhibition": "16.4%"}
{"smiles": "CCC1CCCCN1C(=O)CSc1nc2c(cnn2-c2ccc(C)cc2)c(=O)[nH]1", "note": "(stereo not given)", "inhibition": "active: 33.2%"}
{"smiles": "CCOC(=O)c1ccc(NC(=O)CN2C(=O)c3cccnc3Oc3ccc(Cl)cc32)cc1", "inhibition": "-5.72%"}
{"smiles": "CCOc1ccc(NC(=O)N2CCOc3ccccc32)cc1", "inhibition": "-19.7%"}
{"smiles": "N#Cc1ccc(-c2cccs2)nc1SCc1ccc(Cl)cc1Cl", "inhibition": "0.628%"}
{"smiles": "Cc1ccnc(NC(c2ccccc2F)c2ccc3cccnc3c2O)c1", "note": "(stereo not given)", "inhibition": "18%"}
{"smiles": "CCc1ccccc1NC(=O)CSc1nnc(-c2nonc2NC(C)=O)n1C", "inhibition": "17.5%"}
{"smiles": "CCCOc1ccccc1Cn1c(=O)sc2ccccc21", "inhibition": "13.5%"}
{"smiles": "O=C(NNc1ncnc2c1cnn2-c1ccccc1)c1cccc(Cl)c1", "inhibition": "15.6%"}
{"smiles": "COc1ccc(Cl)c(Cn2c(NCCN)nc3c2c(=O)n(C)c(=O)n3C)c1", "inhibition": "0.0664%"}
{"smiles": "CCCCN(CC)CCCNC(=S)Nc1ccc2nc(N3CCN(CC)CC3)cc(C)c2c1", "inhibition": "active: 41.4%"}
{"smiles": "COc1ccc(C(=O)NCc2nnnn2-c2ccc(C)c(C)c2)cc1", "inhibition": "1.54%"}
{"smiles": "Cc1ccc(OCCSc2nc3ccccc3n2CC(=O)N2CCOCC2)c(C)c1", "inhibition": "10.3%"}
{"smiles": "CCOc1ccc(NC(=O)CN2C(=O)COc3ccc(S(=O)(=O)Nc4ccccc4)cc32)cc1", "inhibition": "-12.7%"}
{"smiles": "Cc1ccc(Cl)cc1NC(=O)Cn1nc2c(cc1=O)CC(C)CC2", "note": "(stereo not given)", "inhibition": "-23.6%"}
{"smiles": "CCOC(=O)C1CCCN(Cc2ccc(OC)c(OCc3ccccc3)c2)C1", "note": "(stereo not given)", "inhibition": "active: 45.4%"}
{"smiles": "COc1ccc(C(=O)Nc2ccc3nc4n(c(=O)c3c2)CCCCC4)cc1OC", "inhibition": "-9.18%"}
{"smiles": "CC(C)OCCCNC(=O)CCCn1c(SCC(=O)c2ccc(Br)cc2)nc2c(sc3ccccc32)c1=O", "inhibition": "1.42%"}
{"smiles": "COc1ccc(CNC(=O)c2cnn3c(C)c(Cc4ccc(F)cc4)c(C)nc23)cc1", "inhibition": "3.39%"}
{"smiles": "O=C(CC1(O)C(=O)N(CN2CCOCC2)c2ccccc21)c1ccccc1", "note": "(stereo not given)", "inhibition": "active: 30.3%"}
{"smiles": "Cc1cc(C)c(NC(=O)Cn2c(=O)n(CCCCC(=O)NCc3ccccc3Cl)c(=O)c3ccccc32)c(C)c1", "inhibition": "10.5%"}
{"smiles": "Cc1cc(Nc2cccc(Cl)c2C)n2nc(Cc3ccccc3)nc2n1", "inhibition": "-24.9%"}
{"smiles": "COc1ccc(CNC(=O)CCCn2c(SCC(N)=O)nc3cc4c(cc3c2=O)OCO4)cc1", "inhibition": "-5.21%"}
{"smiles": "COc1cc(Cl)c(C)cc1NC(=O)c1cn(CC(C)C)c(=O)c2cc(OC)c(OC)cc12", "inhibition": "-0.543%"}
{"smiles": "CCN(CC)C(=O)CSc1nc2cc3c(cc2c(=O)n1Cc1ccc(C(=O)NCCc2ccc(OC)c(OC)c2)cc1)OCO3", "inhibition": "-1.06%"}
{"smiles": "CCOc1ccccc1NC(=O)Cn1c(=O)n(Cc2ccccc2)c(=O)c2c(C)c(C(=O)N(C)C)sc21", "inhibition": "4.33%"}
{"smiles": "Cc1ccc(-c2cn3c(n2)sc2cc(C(=O)N4CCCCC4)ccc23)cc1", "inhibition": "-15.9%"}
{"smiles": "Cc1ccc(NC(=O)NCc2cccn2Cc2ccccc2)cc1F", "inhibition": "15.5%"}
{"smiles": "COC(=O)C(C)Sc1nc2c([nH]c3ccccc32)c(=O)n1-c1ccc(OC)cc1", "note": "(stereo not given)", "inhibition": "14.6%"}
{"smiles": "O=C(Nc1ccc2nc(SCC(=O)N3CCCC3)sc2c1)c1ccc(F)cc1", "inhibition": "4.34%"}
{"smiles": "O=C1C(Cl)=C(NCc2cccnc2)C(=O)c2ccccc21", "inhibition": "active: 33.7%"}
{"smiles": "CC(=O)Nc1ccc(C2=NNC(=Nc3ccc(S(=O)(=O)N4CCOCC4)cc3)SC2)cc1", "inhibition": "active: 42.7%"}
{"smiles": "CCOc1cc(C2c3c(oc4ccccc4c3=O)C(=O)N2Cc2ccc3c(c2)OCO3)ccc1O", "note": "(stereo not given)", "inhibition": "13.4%"}
{"smiles": "Cc1ccc(-n2ncc(C(=O)Nc3ccc(C)c(F)c3)c2C2CCN(C(=O)OC(C)(C)C)CC2)cc1C", "inhibition": "16.9%"}
{"smiles": "Cc1ccc(CNC(=O)CCCCn2c(=O)c3ccccc3n(Cc3ccc(Cl)cc3)c2=O)cc1", "inhibition": "-15.7%"}
{"smiles": "Cc1nc2sc(C(=O)NCc3ccc(Cl)cc3)c(NC(=O)c3ccccc3)c2c(C)c1C", "inhibition": "1.94%"}
{"smiles": "Cc1ccccc1NC(=O)c1nc(-c2ccncc2)no1", "inhibition": "12.9%"}
{"smiles": "CCC(C(=O)OCc1cc(=O)n2nc(CCOC)sc2n1)c1ccccc1", "note": "(stereo not given)", "inhibition": "-2.26%"}
{"smiles": "Cc1ccc(NC(=O)Cn2c(CCC(=O)O)ccc2-c2cccs2)cc1", "inhibition": "11.6%"}
{"smiles": "CCOc1cccc(C2c3c(oc4ccccc4c3=O)C(=O)N2c2nc(C)c(C(=O)OC)s2)c1", "note": "(stereo not given)", "inhibition": "8.58%"}
{"smiles": "Cc1ccc2occ(CC(=O)Nc3nnc(C(C)C)s3)c2c1", "inhibition": "9.82%"}
{"smiles": "O=C(Nc1nnc(S(=O)(=O)N2CCCc3ccccc32)s1)c1ccccc1Br", "inhibition": "-0.766%"}
{"smiles": "COc1ccc(CNC(=O)c2ccc3c(c2)N(Cc2ccccc2)C(=O)c2ccccc2S3(=O)=O)cc1", "inhibition": "1.33%"}
{"smiles": "COc1ccc(-c2cc3nc(C4CCN(C(=O)OC(C)(C)C)CC4)c(C(=O)Nc4cc(Cl)cc(Cl)c4)cn3n2)cc1", "inhibition": "12.5%"}
{"smiles": "CCOc1ccccc1N(C)C(=O)c1nn(-c2ccc(C)cc2)c(=O)c2c1c1ccccc1n2C", "inhibition": "5.35%"}
{"smiles": "CCOc1ccccc1-c1nnc(SCc2ccc(Cl)cc2)o1", "inhibition": "0.485%"}
